# Results taken from PMC4336329 (PLoS ONE, 2015).
# Among all 310,000 compounds or so, about 14,000 (4.5%) showed an effect of 50% or more. Effects have a minus sign here. The list shows a part of the results.
# Molecular target: human ether-à-go-go-related gene (hERG) potassium channel (human, UniProt Q12809)
# Assay: primary screen, population patch clamp on CHO cells stably expressing hERG
# 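Further: peak tail current of the secondary pulse compared with the same well before compound.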
# human ether-à-go-go-related gene (hERG) potassium channel, sequence (Q12809 whole entry, looked up): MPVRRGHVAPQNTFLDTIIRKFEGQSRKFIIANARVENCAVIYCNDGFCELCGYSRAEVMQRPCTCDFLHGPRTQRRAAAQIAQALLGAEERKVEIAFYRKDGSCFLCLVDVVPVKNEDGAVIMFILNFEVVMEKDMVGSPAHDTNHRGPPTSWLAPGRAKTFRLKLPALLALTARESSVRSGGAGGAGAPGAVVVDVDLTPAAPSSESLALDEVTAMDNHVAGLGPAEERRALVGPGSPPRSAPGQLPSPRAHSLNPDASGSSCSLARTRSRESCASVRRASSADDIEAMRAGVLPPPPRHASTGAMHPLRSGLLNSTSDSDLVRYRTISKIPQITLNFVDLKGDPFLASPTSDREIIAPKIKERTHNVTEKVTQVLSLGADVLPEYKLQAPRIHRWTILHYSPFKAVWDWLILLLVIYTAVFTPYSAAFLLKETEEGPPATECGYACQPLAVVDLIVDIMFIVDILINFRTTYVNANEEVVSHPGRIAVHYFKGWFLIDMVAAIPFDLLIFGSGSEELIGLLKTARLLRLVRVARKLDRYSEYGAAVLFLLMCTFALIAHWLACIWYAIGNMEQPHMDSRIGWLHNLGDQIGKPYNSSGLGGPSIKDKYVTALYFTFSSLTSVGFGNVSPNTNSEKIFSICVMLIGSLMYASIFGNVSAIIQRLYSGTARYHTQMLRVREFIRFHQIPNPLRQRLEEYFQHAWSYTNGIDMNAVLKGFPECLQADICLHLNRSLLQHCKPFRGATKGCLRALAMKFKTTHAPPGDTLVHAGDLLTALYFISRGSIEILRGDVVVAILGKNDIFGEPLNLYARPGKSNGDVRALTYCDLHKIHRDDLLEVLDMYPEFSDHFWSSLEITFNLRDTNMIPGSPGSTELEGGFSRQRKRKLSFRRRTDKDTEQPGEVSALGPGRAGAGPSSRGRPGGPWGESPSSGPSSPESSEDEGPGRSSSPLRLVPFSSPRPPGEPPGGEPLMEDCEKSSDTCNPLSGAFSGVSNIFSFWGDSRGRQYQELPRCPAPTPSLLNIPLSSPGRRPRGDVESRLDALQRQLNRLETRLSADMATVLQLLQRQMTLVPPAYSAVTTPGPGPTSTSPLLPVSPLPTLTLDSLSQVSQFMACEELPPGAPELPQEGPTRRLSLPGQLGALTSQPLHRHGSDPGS
row,SMILES,"hERG current change (%, negative = inhibition) at 10uM [%]"
1,Cc1cc(C)c2c(N)c(C(=O)Nc3cccc(C)c3C)sc2n1,9.59
2,Cc1cc(Nc2ccc(Cl)cc2)n2nnnc2n1,7.83
3,COc1ccc(-c2ccc([C@H]3[C@H]4C=CC[C@@H](C)[C@@H]4C(=O)N3Cc3ccccc3)c(F)c2)cc1OC,6.16
4,Cc1ccc2cc(C#N)c(NCCNC(=O)C3CC3)nc2c1C,7.18
5,Cc1cc(C)n(CCNc2nc3nonc3nc2N2CCCCC2)n1,-3.06
6,CC(C)COC(=O)CCn1[nH]c(=O)c2ccccc2c1=O,7.42
7,O=C(CSCc1ccc(Cl)cc1)N/N=C/c1ccco1,-3.12
8,COc1ccc(CN2C(=O)CN=C2Nc2cccc(C)c2C)cc1.Cl,-20.1
9,COc1ccc(NC(=O)Cn2cc(C(=O)c3ccco3)c3ccccc32)cc1,-15
10,COC(=O)Cc1cc(=O)n2[nH]c(C(F)(F)F)nc2n1,11.1
11,Cc1ccc2nc(-c3cccc(Br)c3)cc(C(=O)Nn3cnnc3)c2c1,5.71
12,C=CCOC(=O)C1=C(C)OC(N)=C(C#N)C1c1ccc2c(c1)OCO2 (stereo not drawn),9.17
13,O=C(CN1C(=O)c2cccnc2C1=O)c1ccccc1,-1.88
14,CN=C1C=C/C(=N/N=c2\ccn(O)cc2C)C=C1C,-32.6
15,CCCCC(=O)NCCc1ccc(OC)cc1,6.41
16,O=C(c1ccc(-c2ccccc2)cc1)C1CCCN(C(=O)c2cncs2)C1 (stereo not drawn),-22.9
17,CCc1nc(SCC(=O)NCCc2ccccc2)n[nH]1,-3.42
18,O=C(CSc1ccc2nnc(-c3ccccn3)n2n1)NCc1ccc2c(c1)OCO2,-74.4
19,COc1cc(COc2ccc3c(C)c(Cc4ccccc4)c(=O)oc3c2)cc(OC)c1OC,-15.8
20,CCCNC(=O)c1ccc(C2SCC(=O)N2CCc2ccccc2)cc1 (stereo not drawn),-4.02
21,Cc1noc(C)c1C(=O)Nc1ccc(-c2nnc3n2CCCCC3)cc1,5.46
22,COc1cc(/C=N/NC(=O)c2c(C)nc3ccc(Cl)cn23)cc(OC)c1OC,14.4
23,COc1ccc(-n2nnnc2SCC(=O)Nc2ccccc2)cc1,16

row,SMILES,"hERG current change (%, negative = inhibition) at 10uM [%]"
1,CCn1cnc2scc(-c3ccc(C)c(C)c3)c2c1=O,-23.1
2,Cc1cccc(CNc2ccc(S(=O)(=O)N3CCCCC3)cc2)c1,-38.6
3,O=C(Cc1ccccc1)Nc1ccccc1C(=O)Nc1ccc(C(=O)O)cc1,1.41
4,CCOC(=O)C1(CC)NC(c2ccc(OC)cc2OC)C2C(=O)N(C)C(=O)C21 (stereo not drawn),2.74
5,COCCCNCC(O)COc1ccccc1F (stereo not drawn),5.58
6,COc1ccc(OC)c2sc(NC(=O)c3ccc(Cl)s3)nc12,11.4
7,CC(CNC(=O)CN1C(=O)CCSc2ccccc21)c1ccccc1 (stereo not drawn),12.9
8,Clc1ccc(C[n+]2csc3ccccc32)cc1.[Br-],9.64
9,O=C(COC(=O)CCc1nc2ccccc2c(=O)[nH]1)Nc1ccccc1Cl,2.62
10,Cc1nc2c(ccc3nc(NC(=O)C4CC4)sc32)s1,5.71
11,CCC(O)CNC(=O)CCc1nnc(C2(c3ccc(Cl)cc3)CCC2)o1 (stereo not drawn),11.3
12,CC(=O)N1c2ccccc2NC2=C(C(=O)CCC2)C1c1ccco1 (stereo not drawn),13.4
13,CCCCc1cc(=O)oc2cc(OCC(=O)N3CCC(C(=O)O)(c4ccccc4)CC3)ccc12,-1.97
14,CCOC(=O)C1CCN(C(=O)CSc2cc(=O)n(CC)c3ccccc23)CC1,-29.4
15,Cc1c2n(c3ccccc13)CCN(C)C2,10.5
16,C=CCn1c(O)c(C=Nc2ccc(OC)cc2C)c(=O)[nH]c1=O,7.24
17,Nc1nc(-c2ccccc2)nn1C(=O)c1ccco1,-4.19
18,O=C(c1ccc(C(=O)N2CCN(c3ccccc3F)CC2)nc1)N1CCN(c2ccccc2F)CC1,-3.5
19,CCN1/C(=C2/SC(=S)N(C)C2=O)C=Cc2cc(C)ccc21,-1.96
20,O=S(=O)(c1ccc(OC(F)(F)F)cc1)N1CCCC(c2ccccc2)C1 (stereo not drawn),14.5
21,CCOC(=O)c1ccc2[nH]c3c(c2c1)CCCC3,-19.2
22,Cc1ccc(C)c(S(=O)(=O)Nc2ccc(C(=O)NCCCN3CCOCC3)cc2)c1,-9.18
23,CCCN(CCC)C(=O)C1CC(=O)OC12CCCCC2 (stereo not drawn),7.26

row,SMILES,"hERG current change (%, negative = inhibition) at 10uM [%]"
1,O=C(O)c1ccc(N/N=C/c2ccc(-c3ccc(Cl)cc3Cl)o2)cc1,10.7
2,O=C(CN(CCCN1CCOCC1)C(=O)Cn1nnc(-c2ccc(F)cc2)n1)NC1CCCCC1,-14.5
3,CCOC(=O)C1=C(c2ccccc2)NC(=S)NC1C (stereo not drawn),10.1
4,COc1cc(N)ccc1NC(=O)c1cc2ccccc2o1,13.1
5,CCc1ccc2c(CC(=O)NNC(=O)c3ccncc3)coc2c1,1.23
6,CNC(=O)N(C)c1nnc(C(C)(C)C)s1,1.9
7,CC(C)n1c(N2CCN(C(=O)Nc3ccc(F)cc3F)CC2)nc2ccccc21,-26.3
8,COc1ccc(CCNC(=O)C(=O)NCC2OCCN2S(=O)(=O)c2ccc(C)cc2)cc1 (stereo not drawn),-14.8
9,COC(=O)[C@@H](NC(=O)Nc1ccc2c(c1)OCCO2)C(C)C,13.3
10,Cc1ccc(-c2cc(C(=O)NCCCN3CCCC3)c3ccccc3n2)cc1C,-37.5
11,CNC(=O)CSc1cn(CC(=O)N(C(C)C)C(C)C)c2ccccc12,-1.53
12,Cc1cc(NC(=O)CSc2nnc(C3CC3)n2-c2ccccc2)no1,-13
13,COc1cccc(C=Nc2ccc3c(c2)OCCO3)c1O,9.98
14,COc1ccc2c(C(=O)CN(C)C3CCCCC3)c[nH]c2c1,9.09
15,CCOC(=O)CN1C(=O)N[C@@H](CCc2ccccc2)[C@H](C(C)=O)[C@H]1C,-1.65
16,Cc1ccc2[nH]c(O)c(N=NC(=O)C3CC3c3ccccc3)c2c1Br (stereo not drawn),-55.7
17,O=C(COc1ccc2c(c1)CCC2)Nc1ccccn1,5.23
18,Nc1nc(Br)c2ccccc2c1-c1ccccc1,9.89
19,O=C(Nc1ccccc1)c1ccccc1NC(=O)c1ccccc1[N+](=O)[O-],-9.99
20,CCCOc1ccccc1C1CC(=O)NC(C)=C1C(=O)OCC(C)C (stereo not drawn),-0.723
21,CSC1=NSC2=NC(=O)/C(=C\c3cccs3)C(=N)N12,3.68
22,CCOc1ccc(S(=O)(=O)N2CCN(Cc3ccccc3)CC2)c2cccnc12,-42.6
23,CC(=O)Nc1cccc(NC(=S)Nc2cccc3ccccc23)c1,7.09

row,SMILES,"hERG current change (%, negative = inhibition) at 10uM [%]"
1,O=C(c1ccc(C(F)(F)F)cc1)C1CCCN(C(=O)CCn2cncn2)C1 (stereo not drawn),-33.8
2,COc1ccc(N2CCCn3c2nc2c3c(=O)n(CCN3CCOCC3)c(=O)n2C)cc1,-14
3,Cc1ccc(-c2ccc(SCC(=O)NC3CCCCC3)nn2)cc1,9.69
4,CC(C)(C)OC(=O)CC[C@@H](C(=O)NCCCCCCCCCCC(=O)N1CCN(C(=O)OC(C)(C)C)CC1)n1cc(CCCCCNC(=O)OC(C)(C)C)nn1,4.12
5,COc1ccccc1OCC(=O)Nc1cc(Cl)ccc1Oc1ccccc1,-2.49
6,O=C(CNCC1CCCO1)Nc1ccccc1N1CCCCCC1.O=C(O)C(=O)O (stereo not drawn),-6.51
7,CCC(=O)N1CCN(C(=O)c2ccccc2)CC1,1.82
8,CC1CN(c2ccc([N+](=O)[O-])cc2F)CCN1C(=O)c1ccco1 (stereo not drawn),-62
9,Cc1cc(C)n(CC(=O)NC2CCCc3c2cnn3-c2ccccc2F)n1 (stereo not drawn),-0.23
10,CCCc1cc(=O)[nH]c(SCC(=O)N2CCc3ccccc3C2)n1,-4.59
11,Cc1noc(C)c1S(=O)(=O)N1CCC(C(=O)Nc2ccc(Br)cc2)CC1,5.84
12,CC(=O)Nc1ccc(/C(C)=N/Nc2nc(Nc3ccccc3)nc(N3CCOCC3)n2)cc1,-2.38
13,CC(=O)Nc1ccc(NC(=O)c2ccc(CSc3ccccc3)o2)cc1,17
14,O=C(O)Cn1cc(/C=C/[N+](=O)[O-])c2ccccc21,24.2
15,CC(=O)c1c(O)cc(=O)n(-c2ccccc2)c1-c1ccc(Cl)cc1,22
16,CSCCC(NS(=O)(=O)c1ccc2c(c1)c(=O)n(C)c(=O)n2C)C(=O)NC1CCN(Cc2ccccc2)CC1 (stereo not drawn),-14.5
17,COc1ccc(Cc2nc3ccc(C(=O)N4CCCC4)cc3o2)cc1OC,12.8
18,Cc1ccc(C)c(NC(=O)CSc2nc(C)cs2)c1,1.23
19,O=C(NCc1ccccc1F)C1CCN(S(=O)(=O)c2ccccc2)CC1,-12.1
20,O=C(NCc1ccccn1)C(=O)Nc1ccccc1,-2.8
21,CC(=O)Nc1sc(N/N=C/c2ccc(O)cc2)nc1-c1ccc(C)cc1,11
